According to the supplement of paper PMC3334620:
Whole data set: some 33,000 sequences, median “E-score (-0.5 to 0.5)” near -0.013, cut for the highest 2% near 0.3. This is one part of the list.

molecular target: T1, Msn1 (UniProt P22148); assay: PBM E-score (8-mer binding enrichment) (E-score (-0.5 to 0.5)); higher = stronger / more preferred TF binding; most listed sequences are background and not binding sites; settings: protein concentration: 200 nM; construct: GST-full length
T1 sequence: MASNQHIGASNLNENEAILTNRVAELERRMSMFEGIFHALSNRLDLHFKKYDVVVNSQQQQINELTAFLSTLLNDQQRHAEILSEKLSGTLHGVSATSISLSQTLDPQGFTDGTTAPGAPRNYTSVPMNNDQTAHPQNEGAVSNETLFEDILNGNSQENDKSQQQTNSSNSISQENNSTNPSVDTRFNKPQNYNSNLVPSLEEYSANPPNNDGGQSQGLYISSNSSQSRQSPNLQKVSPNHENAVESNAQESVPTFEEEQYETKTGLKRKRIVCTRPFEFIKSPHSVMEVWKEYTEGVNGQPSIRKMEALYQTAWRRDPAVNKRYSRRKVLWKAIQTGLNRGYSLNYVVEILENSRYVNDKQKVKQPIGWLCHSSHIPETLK
Method: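 Universal 'all 10-mer' protein binding microarrays (Agilent AMADID 015681) probed with GST-tagged S. cerevisiae TFs (full-length or DBD) made by in vitro transcription/translation (PURExpress), about 100-200 nM. Bound TF was detected with fluorescent anti-GST. Each ungapped 8-mer (which stands for itself and its reverse complement) is scored by the PBM enrichment score (E-score), a modified Wilcoxon-Mann-Whitney statistic from -0.5 to +0.5, computed with the Universal PBM Analysis Suite. Scale: above 0.35 generally sequence-specific binding.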

| Sequence | PBM E-score |
| --- | --- |
| CTGACGTA | -0.112 |
| GTATAGAA | 0.161 |
| CAAAGAAC | 0.125 |
| CCATCAGA | -0.166 |
| ACCTCAAC | 0.00341 |
| AGTGATCG | -0.188 |
| ATGAACGG | 0.0477 |
| ACTGTATA | 0.236 |
| CTAGCGTC | -0.0835 |
| AGCGATAT | 0.0998 |
| GCCCTCCC | -0.308 |
| CCAATTGA | 0.023 |
| CAAAATAC | 0.139 |
| GTTATTCA | 0.142 |
| ATGCACTA | -0.0118 |
| TAAGTGAA | 0.145 |
| CGCCACCC | -0.249 |
| GGCAAGAC | 0.0134 |
| GACCCAAA | 0.0882 |
| ATCACCTG | -0.137 |
| ACTCTGCA | 0.0249 |
| CGTACAGC | -0.123 |

| Sequence | PBM E-score |
| --- | --- |
| CAGATCGG | -0.0621 |
| GCGAGCCA | -0.0799 |
| GCTAAAGC | -0.0984 |
| CCTAGATC | -0.0304 |
| ATTATTGG | -0.0158 |
| ATGGACAT | 0.484 |
| CCTCTTTA | -0.287 |
| GTAGTGTA | -0.167 |
| ACCATTTC | 0.0512 |
| CCCGTAAG | -0.117 |
| AACCCATC | -0.157 |
| GGAAACCA | -0.252 |
| ACTTGTCG | 0.297 |
| CAATCAAC | 0.0592 |
| GGCCTGAA | -0.211 |
| AGTTTCTC | 0.17 |
| AAATGTAA | 0.238 |
| ACTCTACG | -0.218 |
| ACAGCGTA | -0.149 |
| GAAGGACA | 0.471 |
| GATCAGAA | -0.218 |
| AGTGACAG | 0.0949 |

| Sequence | PBM E-score |
| --- | --- |
| AAGGGCAA | 0.109 |
| CATTCAGC | 0.0507 |
| ATACCCCG | -0.0946 |
| GTCGCGCA | 0.06 |
| CTACCCAA | 0.0829 |
| CATGTCCA | 0.463 |
| CTACAAAG | 0.0161 |
| CAGCTATG | 0.0002 |
| CATGGACA | 0.47 |
| GCGTGGCA | -0.137 |
| AACAGGCG | -0.287 |
| CAGTGTTA | -0.0135 |
| ATAATGTA | 0.139 |
| CAGTCATA | 0.0625 |
| TAGGGCAA | -0.0804 |
| GATCGACC | 0.126 |
| ACCCGACC | 0.0169 |
| CCGCTTGA | 0.0113 |
| GTCATGGA | -0.109 |
| TAGCCGCA | -0.121 |
| AGAAAACA | 0.108 |
| CGGAAACC | -0.114 |

| Sequence | PBM E-score |
| --- | --- |
| ACAAATGC | 0.304 |
| AAAGGACA | 0.445 |
| AACGGGGT | -0.0951 |
| GTAAAGAC | 0.12 |
| CCCTCAAA | -0.121 |
| GTGAGAAC | -0.219 |
| CACTGAGC | -0.0239 |
| AGGGATCA | -0.166 |
| ATTAATTC | 0.214 |
| AGCAACCC | -0.18 |
| GCCCTGAC | -0.211 |
| TACACTGA | 0.0723 |
| GAAGCGAA | 0.0924 |
| ACATTCGT | 0.0578 |
| AGTATCGG | 0.0763 |
| TCACACGA | 0.049 |
| ATGATTAA | 0.118 |
| ACAGACTG | 0.112 |
| ACAAAGGA | 0.0497 |
| CTCCAATA | 0.0417 |
